{"source": "patent US7319000B1", "about": "“Compositions and methods for eliciting immune or anti-infective responses” (priority 1992, dated 2008)", "key": {"BALB/c mice": {"tested_on": "BALB/c mice", "assay": "Anti-peptide antibody response (ELISA) in BALB/c mice immunized with peptide multimers", "type": "in vivo", "settings": "high molecular weight forms of the peptides"}, "[1]": {"tested_on": "PLN cells from B6C3F1 mice", "assay": "In vitro proliferation (3H-TdR) of PLN cells from immunized B6C3 F1 mice", "type": "in vivo", "design": "key: −: cpm values are corrected and categorized according to unrelated antigen response in vitro.; •: Not determined.; +: cpm values are corrected and categorized according to unrelated antigen response in vitro.; ++: cpm values are corrected and categorized according to unrelated antigen response in vitro.; +++: cpm values are corrected and categorized according to unrelated antigen response in vitro.; ++++: cpm values are corrected and categorized according to unrelated antigen response in vitro", "settings": "in vitro antigen: GP 160"}, "[2]": {"tested_on": "PLN cells from A SW × Balb/c F1 mice", "assay": "In vitro proliferation (3H-TdR) of PLN cells from immunized A.SW x BALB/c F1 mice", "type": "in vivo, A.SWXBALB/C F1 mice", "design": "key: −: cpm values are corrected and categorized according to unrelated antigen response in vitro.; •: Not determined.; +: cpm values are corrected and categorized according to unrelated antigen response in vitro.; ++: cpm values are corrected and categorized according to unrelated antigen response in vitro.; +++: cpm values are corrected and categorized according to unrelated antigen response in vitro.; ++++: cpm values are corrected and categorized according to unrelated antigen response in vitro", "settings": "in vitro antigen: GP 160"}}}
{"sequence": "CRIKQIINMWQGVGKAMYAPPIGGQIRC [Peptide 67, gp160 aa 417-444]", "values": [{"measurement": "anti-peptide antibody response (in words)", "setting": "BALB/c mice", "result": "high antibody titers"}, {"measurement": "In Vitro Proliferation of PLN Cells from B6C3F1, GP 160", "setting": "[1]", "result": "−"}, {"measurement": "In Vitro Proliferation of PLN Cells from A SW × Balb/c F1, GP 160", "setting": "[2]", "result": "++"}]}
